Literature values, collected in US4161598A, “1-Oxygenated-2,6-methano-3-benzazocines” (Sterling Drug Inc., priority 1977, dated 1979).

System: writhing
Conditions: Ziering reference; cited from earlier work

| SMILES | activity in the writhing test for analgesia in the mouse |
| --- | --- |
| COc1ccc2c(c1)[C@]1(C)CCN(C)[C@@H]([C@@H]1C)[C@@]2(O)c1ccccc1 (relative stereo) [Compound 13] | weakly active |
| COc1ccc2c(c1)[C@]1(C)CCN(C)[C@@H]([C@@H]1C)[C@]2(C)O (relative stereo) [Compound 14] | weakly active |
